Consider 109 sequences from the supplement of paper PMC3334620.

Over roughly 33,000 sequences, “E-score (-0.5 to 0.5)” has its median near -0.056; the highest 2% begin near 0.38. The list shows a part of the results.

The target in this experiment is Stb4 (UniProt P50104). In words: PBM E-score (8-mer binding enrichment) (E-score (-0.5 to 0.5)); higher = stronger / more preferred TF binding; most listed sequences are background and not binding sites. The note with it: protein concentration: 200 nM; construct: GST-DNA-binding domain. The method, then:
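Universal 'all 10-mer' protein binding microarrays (Agilent AMADID 015681) probed with GST-tagged S. cerevisiae TFs (full-length or DBD) made by in vitro transcription/translation (PURExpress), about 100-200 nM. Bound TF was detected with fluorescent anti-GST. Each ungapped 8-mer (which stands for itself and its reverse complement) is scored by the PBM enrichment score (E-score), a modified Wilcoxon-Mann-Whitney statistic from -0.5 to +0.5, computed with the Universal PBM Analysis Suite. Scale: above 0.35 generally sequence-specific binding.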
Consider ATGGCCTC, for which the “PBM E-score” value was found to be 0.0882.

Regarding AACCGAGC, the “PBM E-score” value was found to be 0.418. With CGGCCGAG, the “PBM E-score” value was 0.336.

For CCCCAAGC, the “PBM E-score” value came out at 0.144. For ACAACGCC the value was -0.0359. For TCAATAGA the value was -0.268; for GAGAATGC, 0.0088. With CCTAGGGA, the “PBM E-score” value came to 0.0122. CACAATTC: the “PBM E-score” value was -0.0479. As to GAGCGCCC, the “PBM E-score” value was found to be 0.0527. For TACATAAA the value was -0.216.

On to AGCTATAT, for which the “PBM E-score” value was determined as 0.0653. In the case of CGCTGAAA, the “PBM E-score” value is -0.0375.

As for CCCTTCCC, the “PBM E-score” value was 0.126. For TCAATTCA the value was -0.11; for GCCTCCTA, -0.198; for GGGCGAGA, -0.0235. For the sequence CCGCGAGG, the “PBM E-score” value is 0.179. Next, CTCTTCGA: -0.104; AGTCTCCC: 0.00962. Turning to AGCGGACG, the “PBM E-score” value is 0.0646. Turning to GTACGGTA, the “PBM E-score” value amounted to 0.148. GGCAGGAA: the “PBM E-score” value was -0.0711.

On to ATCCGAAA, for which the “PBM E-score” value is 0.48. ACCAAGAC: the “PBM E-score” value was 0.0464.

In the case of GTAGGGAC, the “PBM E-score” value was -0.147.

Regarding GAGGCGGC, the “PBM E-score” value was 0.0844. For ACTGGTGC, the “PBM E-score” value was -0.162.

For TAGCCTAA, the “PBM E-score” value was -0.244.

Take CATATGAG: the “PBM E-score” value was -0.0886. GCGTGCAA: the “PBM E-score” value is -0.138. Next, CAGGAAGC: -0.0961.

With AGATGTCC, the “PBM E-score” value was -0.0583. For AGTGCCAC, the “PBM E-score” value was -0.254. In the case of AAAACCGG, the “PBM E-score” value was 0.204.

Turning to AAGCTGGG, the “PBM E-score” value is -0.0386. For GAGTAAAA, the “PBM E-score” value is -0.146.

For ACTAAATG, the “PBM E-score” value was -0.21.

As to AAAAAACC, the “PBM E-score” value turned out to be 0.0386. As to AGAGCCAA, the “PBM E-score” value was -0.255. For TGGGACCA the value was -0.326. For GCTGGACA the value was -0.216; for CTCCATAA, -0.275.

Turning to CTAAGACC, the “PBM E-score” value is -0.00271. For AAGTGCCG, the “PBM E-score” value was 0.292. For the sequence GCTTTCTA, the “PBM E-score” value worked out at 0.0674.

With AACTAATT, the “PBM E-score” value was -0.0211.

On to CGTCGTTA, for which the “PBM E-score” value was -0.0941.

As for CACACAAG, the “PBM E-score” value was -0.251. In the case of GGCGACCA, the “PBM E-score” value is -0.209.

Take GGCTGTTA: the “PBM E-score” value stood at 0.127. Next, GTAGAACA: -0.123. Take AAAACTGG: the “PBM E-score” value is -0.0456. Regarding ACCTCGCC, the “PBM E-score” value is -0.0213. For TATACATA, the “PBM E-score” value was -0.197. As for CGAAGCAC, the “PBM E-score” value is 0.0573. For ACAGCACT the value was -0.207; for CAATGTTA, -0.103; for CGGGACAC, 0.261.

As to CACACATC, the “PBM E-score” value is -0.103.

As to CCATCTGA, the “PBM E-score” value is -0.126. Next, CAAGCAAA: -0.222; TTCAAAAA: -0.102; TAAGCTTA: -0.311. For TGGAGACA the value was -0.05; for GTCGGACA, 0.22. Next, TCAGTTAA: -0.0366.

For the sequence ACTGCATG, the “PBM E-score” value was -0.195. On to AATAGCCT, for which the “PBM E-score” value was -0.215. ACAGCATG: the “PBM E-score” value is -0.0696.

Take GCTTTAGA: the “PBM E-score” value was -0.133. As to AGGATATA, the “PBM E-score” value was -0.0497. Take CCAGTGTA: the “PBM E-score” value is -0.129. As to GCGACGCC, the “PBM E-score” value came to 0.159. For CGGGTGAC the value was 0.252; for AACTTCCT, -0.0245.

On to CAGTAGAA, for which the “PBM E-score” value is -0.274. For CTATTCTA, the “PBM E-score” value is -0.129. With AGAATATG, the “PBM E-score” value is -0.0614. For GCCGTCAC, the “PBM E-score” value stood at 0.252. As for CACAAGGA, the “PBM E-score” value is -0.206. Turning to ACTGGGGG, the “PBM E-score” value was -0.0817.

In the case of GTTCGAGA, the “PBM E-score” value is -0.154. For the sequence ATAAAGCC, the “PBM E-score” value is -0.107. In the case of AATTGCGG, the “PBM E-score” value amounted to 0.0881.

In the case of AACGCCGC, the “PBM E-score” value came out at 0.121. Regarding CCCTATAG, the “PBM E-score” value is -0.0754. On to GTAGTAAC, for which the “PBM E-score” value amounted to 0.0353. GATCCAAC: the “PBM E-score” value was found to be 0.104. Consider CGTTTACC, for which the “PBM E-score” value was 0.198.

On to CTTACAAC, for which the “PBM E-score” value was -0.234.

CTGAGCAG: the “PBM E-score” value was -0.156. On to GATAACAC, for which the “PBM E-score” value amounted to 0.0937. CAAGAATG: the “PBM E-score” value is 0.0219. As for ACATACAC, the “PBM E-score” value is -0.0366.

Take AGGTATCC: the “PBM E-score” value was found to be 0.22.

Consider AGGGACTA, for which the “PBM E-score” value was -0.0886. ATGGTGAC: the “PBM E-score” value is -0.268. Regarding AATTCCCG, the “PBM E-score” value is 0.355. Take AATGATGG: the “PBM E-score” value was found to be 0.0527. For CAGAACTC, the “PBM E-score” value is -0.176. As for CGATAGGC, the “PBM E-score” value was determined as 0.0444.

For CTTCATCA, the “PBM E-score” value is -0.0729. Next, CCCGGAGA: 0.318; CGTGAAAA: -0.0298. For GCTGACGA the value was -0.346; for GCGTGCGA, -0.106. As for GTGCTGCA, the “PBM E-score” value was -0.165. For the sequence GGAGGAAA, the “PBM E-score” value came out at 0.0487.
